From PubChem BioAssay AID686978 (National Center for Advancing Translational Sciences (NCATS), 2013)
Several values for one entry are separate records, joined by “and”; a condition that tells them apart may be missing. Identical values can stand only once. In all, about 420,000 compounds went through this assay and about 64,000 (15%) were called active. Inconclusive means that the source gave no clear call. Such entries were picked first, then a sample of the others. The call rests on the fitted dose curve; in most records, active means well fitted inhibition curve with a large enough effect; inconclusive means small, poorly fitted or top-dose-only effect; inactive means flat fitted curve, though single readings scatter. A potency beside an inconclusive call is a rough fit, not a confirmed value.

Assay: qHTS for Inhibitors of human tyrosyl-DNA phosphodiesterase 1 (TDP1): qHTS in cells in absence of CPT; further: nearly all actives have a fitted effect of over 55% in size
Conditions: DT40 Tdp1-/- hTDP1 cells, no CPT, ATP luminescence, 48 h; activity change, negative = growth inhibition: at 46.2 µM (top of the series) unless noted
Procedure, shortened: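 DT40 Tdp1-/-;hTDP1 cells, no CPT (DMSO vehicle only), 400 cells/well; compounds pin-transferred; ≥48 hr, 37 °C; CellTiter-Glo 30 min RT dark, luminescence read.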
On the % scale 0 is the no-effect control and ±100 the full control effect; potency means the concentration at half of the fitted maximal effect; tags describe the fitted curve by direction and shape.

Row | Structure (SMILES) | activity change, negative = growth inhibition | Potency
1 | COC(=O)C(C)Oc1ccc(Cl)c(CN2OCC(C)(C)C2=O)c1 (stereo unspecified) | inactive: -17.2% | –
2 | O=C(COc1ccc(S(=O)(=O)N2CCCCC2)cc1Cl)N1CCCC1 | inactive: -25.5% | –
3 | O=C(Nc1ccccc1Sc1ccccc1)c1ccccc1F | inactive: -9.77% | –
4 | CC(C)CC(=O)NC(Nc1ccccc1F)C(Cl)(Cl)Cl (stereo unspecified) | – | inconclusive: 25.9 µM [inhibitor, single point]
5 | S=c1[nH]c(-c2ccccc2)cn1/N=C/c1cccs1 | – | active: 8.2 µM
6 | CCOC(=O)Nc1ccc2c(COC(=O)C(NS(=O)(=O)c3ccc(Cl)cc3)C(C)O)cc(=O)oc2c1 (stereo unspecified) | – | inconclusive: 20.6 µM [inhibitor, partial curve]
7 | COc1ncnc2c1oc1nc(CC(C)C)c3c(c12)CC(C)(C)OC3 | inactive: -29.2% | –
8 | Cc1ccc(Cl)cc1N1CCN(S(=O)(=O)c2cnc[nH]2)CC1 | – | inconclusive: 16.4 µM [inhibitor, partial curve]
9 | O=C(c1ccco1)N1CCC[C@@]2(CCN(C(c3ccccc3)c3ccccc3)C2)C1 | – | inconclusive: 29.1 µM [inhibitor, single point]
10 | Cc1ccc(CNC(=O)CCCc2nnc3n(CC(C)C)c(=O)c4sccc4n23)cc1 | – | inconclusive: 23.1 µM [inhibitor, single point]
11 | C=CCc1cc(C=O)cc(OCC)c1OCc1ccc(Cl)cc1 | – | inconclusive: 25.9 µM [inhibitor, single point]
12 | CCc1ccc2occ(CC(=O)Nc3ccc(C)c(C)c3)c2c1 | – | active: 13 µM
13 | Cc1c(CN(C)Cc2cn(C)nc2-c2ccccc2F)[nH]c2ccccc12 | – | inconclusive: 16.4 µM [inhibitor, single point]
14 | COc1ccccc1CNC(=O)c1ccccc1C(=O)NC(CC(C)C)C(=O)NCc1ccccc1OC (stereo unspecified) | – | inconclusive: 29.1 µM [inhibitor, single point]
15 | COc1ccc(OC)c(C2NC(=O)NC(C)=C2C(=O)OC2CCCCC2)c1 (stereo unspecified) | inactive: -8.38% | –
16 | Cc1cc(OCCCCOc2ccc(S(N)(=O)=O)c(C)c2)ccc1S(N)(=O)=O | – | inconclusive: 18.4 µM [inhibitor, single point]
17 | CCCn1ncc2c(Nc3ccc(C)c(C)c3)ncnc21 | – | inconclusive: 11.6 µM [inhibitor, partial curve]
18 | CN(C)C(=O)c1ccc(-c2ccc3ncnc(N4CCC(C(=O)O)CC4)c3c2)cc1 | inactive: -1.58% | –
19 | COc1ccc(NCC(=O)N/N=C/c2cc([N+](=O)[O-])ccc2N2CCCC2)cc1 | – | inconclusive: 29.1 µM [inhibitor, single point]
20 | Cc1ccc(NC(=O)CCC(=O)c2cccs2)c(O)c1 | inactive: -27.7% | –
21 | CCCCN(C(=O)c1ccccc1OCc1ccc(F)cc1)c1c(N)n(CC(C)C)c(=O)[nH]c1=O | – | inconclusive: 11.6 µM [inhibitor, partial curve, poor fit]
22 | CCc1ccc(-n2c(=O)c3c(C)c(C)sc3n(CC(=O)NCC3CCCO3)c2=O)cc1 (stereo unspecified) | – | inconclusive: 29.1 µM [inhibitor, single point]
23 | CN(C)CCC1c2ccc(Cl)cc2CCc2cccnc21 (stereo unspecified) (tested in a mixture with another compound) | – | inconclusive: 29.1 µM [inhibitor, single point]
24 | CCCCn1c(N)c(N(CC)C(=O)c2cc(CC)c(C)s2)c(=O)[nH]c1=O | inactive: -6.72% | –

Row | Structure (SMILES) | activity change, negative = growth inhibition | Potency
25 | O=C(NCC1CC1)c1ccc(Nc2nc3ccc(Br)cc3[nH]2)cc1 | – | inconclusive: 25.9 µM [inhibitor, single point]
26 | O=S(=O)(c1cccs1)N1CCN(CC(O)COc2cccc(Br)c2)CC1 (stereo unspecified) | – | inconclusive: 29.1 µM [inhibitor, single point]
27 | CCN(CC)C(=O)C1CCCN(c2ncnc3c2c(-c2ccccc2)cn3-c2cccc(C)c2)C1 (stereo unspecified) | – | inconclusive: 13 µM [inhibitor, partial curve, poor fit]
28 | Cc1ccccc1C(=O)Nc1cccc(-c2cn3ccccc3n2)c1 | – | inconclusive: 25.9 µM [inhibitor, single point]
29 | COc1ccccc1CN1CC(C(=O)NCc2cc(F)cc(C(F)(F)F)c2)CCC1=O (stereo unspecified) | inactive: -7.15% | –
30 | CC(C)CNC(=O)C1(C)CCCN1C(=O)c1c(Cl)cccc1Cl (stereo unspecified) | inactive: -22.5% | –
31 | Cc1ccc(NC(=O)C2CC(=O)N(CCc3ccccc3)C2)c(C)c1 (stereo unspecified) | inactive: -12.8% | –
32 | c1cncc(-c2nc(N3CCCCCC3)c3ccccc3n2)c1 | – | inconclusive: 18.4 µM [inhibitor, single point]
33 | Cc1ccc(NC(=O)COC(=O)C2(C)CC2(Cl)Cl)cc1S(=O)(=O)N1CCOCC1 (stereo unspecified) | – | active: 23.1 µM
34 | C=CCn1cc(C(C)=O)c(=O)[nH]c1=O | inactive: -1.32% | –
35 | CC(NC(=O)c1cccc(S(=O)(=O)N2CCCCCC2)c1)c1ccccc1 (stereo unspecified) | – | inconclusive: 25.9 µM [inhibitor, single point]
36 | COC(=O)c1ccc2[nH]c([C@H](C)O)c([C@H](C)O)c2c1 | – | inconclusive: 29.1 µM [inhibitor, single point]
37 | COc1ccc(C(=O)NC(=S)Nc2ccc(N3CCOCC3)c(Cl)c2)cc1[N+](=O)[O-] | – | active: 20.6 µM
38 | COCCn1c(SCc2ccc(C(=O)OC)o2)nc2cc(Cl)ccc2c1=O | – | inconclusive: 23.1 µM [inhibitor, single point]
39 | COCCN(C(=O)COC(=O)CCOc1cccc(C)c1)c1c(N)n(Cc2ccccc2)c(=O)[nH]c1=O | inactive: -30.3% | –
40 | O=C(COC(=O)/C=C/c1ccc(OC(F)F)cc1)Nc1cccc(S(=O)(=O)N2CCCC2)c1 | – | inconclusive: 18.4 µM [inhibitor, single point]
41 | CN1CCN2c3ccccc3Cc3ccccc3C2C1 (stereo unspecified) | – | inconclusive: 20 µM [inhibitor, single point] and inconclusive: 7.31 µM [inhibitor, partial curve, poor fit]
42 | COc1ccc(OC)c(NC(=O)CS(=O)(=O)Cc2nc(-c3ccc(C)cc3)oc2C)c1 | – | inconclusive: 23.1 µM [inhibitor, single point]
43 | CCOC(=O)C1(Cc2cccc(Cl)c2)CCCN(C(=O)c2ccco2)C1 (stereo unspecified) | – | inconclusive: 14.6 µM [inhibitor, single point]
44 | CCCSc1ncnc2c1c(-c1ccccc1)cn2-c1ccccc1OC | – | active: 20.6 µM
45 | CCOc1ccc(NC(=O)CNC(=O)c2nn(-c3ccc(OC)cc3)c(=O)c3ccccc23)cc1 | – | active: 11.6 µM
46 | CCOC(=O)C1(CCCc2ccccc2)CCN(C(=O)[C@@H]2C[C@@H](C)NC(=S)N2)CC1 | – | inconclusive: 29.1 µM [inhibitor, single point]
47 | OCC[C@H]1C[C@@H](O)[C@H](O)[C@]2(Cc3ccccc3CCO2)O1 | inactive: 0.459% | –
48 | Cc1cc(=O)oc2cc(OCC(=O)Nc3ccc(CN4CCOCC4)cc3)ccc12 | inactive: -27.3% | –

Row | Structure (SMILES) | activity change, negative = growth inhibition | Potency
49 | COc1ccc(-c2cn3nc(SCC(=O)Nc4cc(C)cc(C)c4)ccc3n2)cc1 | – | active: 20.6 µM
50 | CCC(=O)c1ccc(OCC(O)CN2CCN(C(c3ccccc3)c3ccccc3)CC2)cc1 (stereo unspecified) | – | inconclusive: 18.4 µM [inhibitor, single point]
51 | Cc1ccc(S(=O)(=O)N2CCOCC2)cc1NC(=O)CNCC1CCCCC1 | – | inconclusive: 20.6 µM [inhibitor, single point]
52 | CCOc1ccc(OCC)c(NC(=O)c2cc(-c3cccs3)nc3ccccc23)c1 | inactive: -12.1% | –
53 | Cc1cc(/C=C2/NC(=O)NC2=O)c(C)n1-c1ccc(C#N)cc1 | – | inconclusive: 23.1 µM [inhibitor, single point]
54 | COc1cc(/C=C/C(=O)OCC(=O)N2CCN(S(=O)(=O)c3ccc(C)cc3C)CC2)ccc1O | – | inconclusive: 29.1 µM [inhibitor, single point]
55 | c1csc(-c2nc(NCCCN3CCOCC3)c3ccccc3n2)c1 | – | inconclusive: 23.1 µM [inhibitor, single point]
56 | [N-]=[N+]=Nc1nc2c(N)ncnc2n1C1OC(CO)C(O)C1O (stereo unspecified) | – | active: 0.58 µM
57 | c1ccc(CNc2nc(NCc3ccco3)nc(N3CCOCC3)n2)cc1 | – | inconclusive: 29.1 µM [inhibitor, single point]
58 | Cc1ccsc1-c1nc(CSCC(=O)NCCN2CCCC2)c(C)o1 | inactive: 4.82% | –
59 | O=[N+]([O-])c1ccccc1N/N=C/c1cc2ccccc2nc1Cl | – | inconclusive: 8.2 µM [inhibitor, partial curve]
60 | CCCCOC(=O)c1ccc(Nc2nc3ccc(C(=O)c4ccccc4)cc3n3cnnc23)cc1 | – | active: 16.4 µM
61 | Cn1c(N)c(C(=O)COC(=O)CC(NC(=O)c2ccccc2Cl)c2ccccc2)c(=O)n(C)c1=O (stereo unspecified) | – | inconclusive: 29.1 µM [inhibitor, single point]
62 | CC(C)N1C(=O)/C(=C/c2nc3ccccc3c(=O)n2-c2ccccc2)c2ccccc21 | – | active: 23.1 µM
63 | Cc1ccc(C(=O)OC(C)CN2CCN(C)CC2)cc1 (stereo unspecified) | inactive: -9.21% | –
64 | Cc1ccccc1-n1c(C)nnc1SCC(=O)N1CCc2ccccc2C1 | inconclusive: -33.4% [inhibitor] | –
65 | Cc1ccc(C2=NN(C(=O)CCl)C(c3cccs3)C2)o1 (stereo unspecified) | – | active: 2.59 µM
66 | Cc1ccc(C)c(CN2C(=O)c3ccccc3S(=O)c3ccc(C(=O)NCCCN4CCCC4)cc32)c1 (stereo unspecified) | – | inconclusive: 29.1 µM [inhibitor, single point]
67 | O=c1c2ccccc2[nH]c2ccccc12 | – | active: 16.4 µM
68 | CC(C)(C)NC(=O)COC(=O)c1cncc(Br)c1 | – | inconclusive: 29.1 µM [inhibitor, single point]
69 | COc1ccc2[nH]cc(C(=O)CN3CCCC(C)C3)c2c1 (stereo unspecified) | inactive: -20.9% | –
70 | O=C(CSc1nnc2ccc(-c3cccnc3)nn12)Nc1ccccc1 | inactive: 5.86% | –
71 | C=CCN1CCS(=O)(=O)N(Cc2ccccc2)[C@@H](C(C)C)C1=O | inactive: -7.88% | –
